PubChem BioAssay AID2451 (National Center for Advancing Translational Sciences (NCATS), 2010)
Values joined by “and” are separate entries in the source; they are usually repeats but may differ in a detail not shown here. Identical values can stand only once. About 2,100 (0.72%) of roughly 290,000 compounds were called active. Inconclusive means that the source gave no clear call. Such entries were picked first, then a sample of the others. Calls come from the whole dose curve; as a rule, active = well fitted inhibition curve with a large enough effect; inconclusive = small, poorly fitted or top-dose-only effect, or effect the other way; inactive = flat fitted curve, though single readings scatter. Potencies beside an inconclusive call are fits to weak or partial responses and may not hold up.

molecular target: Fructose-bisphosphate aldolase (Giardia intestinalis (strain ATCC 50803 / WB clone C6)) (UniProt A8B2U2); test: qHTS Assay for Inhibitors of Fructose-1,6-bisphosphate Aldolase from Giardia Lamblia; details: purified Giardia FBPA; series mostly up to 59.6 µM; note: nearly all actives have a fitted effect of over 55% in size
How it was run: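 40 nM FBPA preincubated 10 min at RT with compound (up to 57.5 uM final), then substrate plus GAPDH/TPI/NAD/arsenate coupling and diaphorase/resazurin added. Fluorescence read after 20 min at RT, 525/598 nm.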
Potency is the fitted concentration of half-maximal effect; tags give direction and shape of the fitted curve.

Chain of UniProt A8B2U2 (A8B2U2 whole entry, looked up): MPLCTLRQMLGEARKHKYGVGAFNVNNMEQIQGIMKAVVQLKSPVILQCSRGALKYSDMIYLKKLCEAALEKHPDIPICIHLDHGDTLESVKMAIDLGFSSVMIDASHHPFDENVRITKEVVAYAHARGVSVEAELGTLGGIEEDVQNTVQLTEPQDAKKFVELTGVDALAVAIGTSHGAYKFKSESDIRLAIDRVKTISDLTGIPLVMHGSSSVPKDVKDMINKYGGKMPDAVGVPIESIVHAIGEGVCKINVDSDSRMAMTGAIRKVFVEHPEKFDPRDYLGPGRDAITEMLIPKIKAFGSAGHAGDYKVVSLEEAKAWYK

| SMILES | Potency |
| --- | --- |
| CCOc1cc(NC(=S)NCCCN2CCOCC2)c(OCC)cc1NC(=O)c1ccco1 | inactive |
| COc1ccc(/C(C)=N/Nc2nc3ccccc3nc2C)cc1 | inconclusive: 17.7 µM [inhibitor, single point] |
| S=c1[nH]nc2nnc3ccccc3n12 | inconclusive: 17.7 µM [inhibitor, single point] |
| C/C(CC(=O)Nc1ccc2ccccc2c1)=N\NC(=O)c1ccc(O)c(O)c1 | inconclusive: 14.1 µM [inhibitor, partial curve] |
| CCOc1ccc(S(=O)(=O)N(C(=O)c2ccco2)c2cc3sc(=O)oc3c3ccccc23)cc1 | inconclusive: 17.7 µM [inhibitor, partial curve] |
| CCN(CC(=O)NCc1ccccc1Cl)CC(=O)Nc1c(F)cccc1F | active: 17.7 µM |
| COc1cc2c(C#N)c(N3CCCCC3)nc(N)c2c(N)n1 | active: 2.23 µM |
| CC(C)N1CCc2c(sc(NC(=O)C3CCCCC3)c2C(N)=O)C1 | inconclusive: 14.1 µM [inhibitor, partial curve] |
| CN(c1ccccc1)S(=O)(=O)c1cccc(C(=O)Nc2ncn[nH]2)c1 | inconclusive: 17.7 µM [inhibitor, partial curve] |
| NNC(=O)c1ccc(Oc2cc(Cl)cc(Cl)c2)o1 | inactive |
| O=C(Nc1ccccc1)O/N=C(\c1ccccc1)c1ccccn1 | inconclusive: 35.4 µM [inhibitor, single point] |
| CC(CN1CCN(C)CC1)OC(=O)c1cccc(F)c1 (stereo not given) | inconclusive: 28.2 µM [inhibitor, single point] |
| O=c1c2sc3ccccc3c2[nH]c(=S)n1CCN1CCOCC1 | inconclusive: 15.8 µM [inhibitor, partial curve] |
| CC(=O)c1ccc(NC(=S)NC2CCCC(C)C2C)cc1 (stereo not given) | inactive |
| CN(C)CCNC(C(=O)Nc1cccc(C(F)(F)F)c1)c1ccccc1 (stereo not given) | active: 17.7 µM |
| C=CCN1C=C2C(=O)C(C)(OC(=O)c3cccs3)C(=O)C=C2C=C1CCCC(=O)OC (stereo not given) | inconclusive: 1.41 µM [inhibitor, full curve] and inconclusive: 1.58 µM [inhibitor, full curve, poor fit] |
| Cc1noc(NS(=O)(=O)c2ccc(NC(=O)CCC3CCCC3)cc2)c1C | inconclusive: 17.7 µM [activator, partial curve] |
| O=C(COc1ccc(Cl)cc1)Nc1cc(NC(=O)COc2ccc(Cl)cc2)cc(C(=O)O)c1 | inactive |
| CCn1c(N2CCN(CC(=O)c3ccc(OC)cc3)CC2)nc2ccccc21 | inactive |
| CCN1C(=O)/C(=C\C=C2/C=CC=CN2CC)SC1=S | inconclusive: 3.54 µM [inhibitor, full curve] |
| CN(C)/C=C/C(=O)c1cnc(-c2ccc(Cl)cc2)s1 | inactive |
| COc1c(O)ccc2c1CN1CCc3cc4c(cc3C1C2)OCO4 (stereo not given) | inconclusive: 5 µM [inhibitor, partial curve] |
| CCCN(CCC)S(=O)(=O)c1ccc(C(=O)Nc2ccc(OCC(=O)N3CCOCC3)cc2)cc1 | inactive |
| CCOC(=O)c1ccc(NC(=S)N(CCCN2CCCC(C)C2)Cc2ccco2)cc1 (stereo not given) | inactive |

| SMILES | Potency |
| --- | --- |
| CCNC1=C(Cl)C(=O)c2ccccc2C1=O | inconclusive: 2.81 µM [inhibitor, full curve] |
| CN(C)S(=O)(=O)c1cccc2c1C(=O)c1ccccc1C2=O | inconclusive: 19.9 µM [inhibitor, partial curve] |
| Cc1nnc2c(SC(C)C)nc3ccccc3n12 | inactive |
| COCCNC(=O)C1CCN(Cc2cccc(OCc3ccccc3)c2)CC1 | inconclusive: 25.1 µM [inhibitor, partial curve] |
| CCC(=O)Nc1sc2c(c1C(=O)OC)CCN(Cc1ccccc1)C2 | active: 12.6 µM |
| CC1CCCCC1NCC(=O)NCc1ccc(F)cc1 (stereo not given) | inconclusive: 19.9 µM [inhibitor, partial curve] |
| O=C(Nc1nc(-c2ccccn2)cs1)c1ccc(Br)s1 | inconclusive: 44.6 µM [inhibitor, single point] |
| O=c1oc2ccccc2cc1-c1ccc(O)cc1O | inactive |
| C/C(=N\OCC(=O)NC12CC3CC(CC(C3)C1)C2)c1cc2ccccc2o1 | inactive |
| Oc1c(Cl)cc(Cl)c2c1NCCC2 | inconclusive: 8.91 µM [inhibitor, partial curve] |
| Cc1cc(Br)ccc1-n1[nH]c(C)c(C=Nc2cccc3nsnc23)c1=O | inconclusive: 15.8 µM [inhibitor, partial curve] |
| COCCN1CCn2c(nc3cc(NC(=O)NC4CCCCC4)ccc32)C1 | inconclusive: 6.29 µM [inhibitor, partial curve] |
| CN1CCC(N(C)CC(=O)Nc2ccc3c(c2)OC(F)(F)O3)CC1 | inconclusive: 9.98 µM [inhibitor, partial curve] |
| O=C(N/N=C/c1c(O)n(C2CCCCC2)c(=S)[nH]c1=O)c1ccccc1O | inconclusive: 2.82 µM [activator, partial curve, poor fit] |
| O=C(N/N=C/c1sc(=O)[nH]c1-[n+]1ccccc1)c1ccccc1[O-] | inconclusive: 15.8 µM [inhibitor, partial curve] |
| CCCCOc1ccc(C(C)=O)cc1Cc1c(O)[nH]c(=S)[nH]c1=O | inconclusive: 20 µM [inhibitor, partial curve] |
| CCCCN(CC)S(=O)(=O)c1ccc(C(=O)Nc2nnc(-c3cccs3)o2)cc1 | inconclusive: 19.9 µM [activator, partial curve] |
| Cc1c(C(=O)O)c(C(=O)O)nc2ccc(N3CCOCC3)cc12 | active: 11.2 µM |
| COc1cccc(-c2c(C(=O)N/N=C/c3sccc3C)nnn2-c2nonc2N)c1 | inconclusive: 20 µM [inhibitor, partial curve] |
| C=CCn1c(N)c(C(=O)Nc2ccccc2)c2nc3ccccc3nc21 | inconclusive: 19.9 µM [inhibitor, single point] |
| Cc1ccc(SCCC(=O)N/N=C/c2ccccc2O)cc1 | inconclusive: 15.8 µM [inhibitor, partial curve] |
| CC1CCN(CC(=O)Nc2ccc(C(=O)N3CCCCC3)cc2)CC1 | inconclusive: 12.6 µM [inhibitor, partial curve] |
| N=c1c(-c2nc3ccccc3[nH]2)cc(C(=O)c2ccco2)nn1-c1ccccc1 | inconclusive: 12.6 µM [activator, partial curve] |
| CN(CC(=O)Nc1ccc(Cl)c(S(=O)(=O)N(C)C)c1)Cc1ccccc1 | inconclusive: 7.94 µM [activator, single point] |

| SMILES | Potency |
| --- | --- |
| Cc1ccc2c(c1)CC1(CN2C)C(=O)OC(C)(C)OC1=O | inconclusive: 15.8 µM [inhibitor, single point] |
| O=C1C2=C(c3ccccc31)[N+](=O)[C@@H]1CCCC[C@@H]1N2[O-] | inconclusive: 5 µM [inhibitor, full curve] |
| O=C(Nc1nnc(S(=O)(=O)N2CCOCC2)s1)c1cccc(Br)c1 | inconclusive: 28.2 µM [inhibitor, partial curve] |
| CN(C)CCCO/N=C(\c1ccccc1)c1ccncc1 | inconclusive: 15.8 µM [inhibitor, single point] |
| CC1CN(Cc2c(O)ccc3c2oc(=O)c2ccccc23)CC(C)O1 (stereo not given) | active: 15.8 µM |
| O=C(Cc1cccs1)Nc1ccc(N2CCOCC2)cc1 | inconclusive: 44.6 µM [inhibitor, single point] |
| CC1=C/C(=N\OS(=O)(=O)c2ccccc2)C=CC1=O | inconclusive: 4.46 µM [inhibitor, partial curve] |
| CC(=O)C1=C(C)OC(N)=C(C#N)C1c1cc2cccc(C)c2nc1Cl (stereo not given) | inconclusive: 12.6 µM [inhibitor, partial curve] |
| COC(=O)C1=C(C)NC(=O)/C1=C\c1cc(C)n(-c2cccc(C)c2)c1C | inconclusive: 12.6 µM [inhibitor, partial curve] |
| Nc1[nH]c(N=NC(=O)c2ccccc2O)c2ccccc12 | inconclusive: 14.1 µM [inhibitor, partial curve] |
| C=CCn1c(O)c(C(C)=Nc2ccc(C(=O)OCC)cc2)c(=O)[nH]c1=O | inactive |
| O=C(O)Cc1cn(Cc2ccc(F)cc2)c2ccccc12 | inconclusive: 19.9 µM [activator, single point] |
| CC(=O)C1=C(C)OC(N)=C(C#N)C1c1cccc2ccccc12 (stereo not given) | active: 19.9 µM |
| COc1cc(CN2CCc3c([nH]c4ccccc34)C2)cc(OC)c1 | inconclusive: 25.1 µM [inhibitor, partial curve] |
| CCN(CC)CCCNC(=S)N(Cc1cccs1)Cc1cc2cc3c(cc2[nH]c1=O)OCCO3 | inactive |
| Cc1ccc(S(=O)(=O)N2CCCCC2)cc1NC(=S)NC(=O)c1ccco1 | inconclusive: 17.7 µM [inhibitor, single point] |
| CC(C)c1ccc(OCC(=O)NNC(=S)NC(=O)c2ccco2)c(Br)c1 | inconclusive: 28.2 µM [activator, single point] |
| COc1ccc([N+](=O)[O-])cc1NC(=O)c1ccccc1SC | inactive |
| CCc1c(C)nc2[nH]nc(NC(=O)C(F)(F)F)n2c1=O | inconclusive: 12.6 µM [inhibitor, partial curve] |
| Cc1cccc(C(=O)N2CCCC(N3CCN(c4ccccc4)CC3)C2)n1 (stereo not given) | inactive |
| O=C(N/N=C/c1cc(Br)ccc1O)c1cccc(N2CCCC2=O)c1 | inconclusive: 2.81 µM [inhibitor, partial curve] |
| Cc1ccc(C)n1-c1ccc(C(=O)NCC2CCCO2)cc1 (stereo not given) | inactive |
